{"source": "PubChem BioAssay AID651820", "about": "(National Center for Advancing Translational Sciences (NCATS), 2012)", "note": "Among all 340,000 compounds or so, about 12,000 (3.5%) were called active. Inconclusive results, whose numbers are uncertain, are shown with a selection of clear calls. Calls follow the shape of the dose curve; as a rule, active = well fitted inhibition curve with a large enough effect; inconclusive = small, poorly fitted or top-dose-only effect, or another doubt; inactive = no such curve, though single readings can be large or run the other way. No potency is given beside an inconclusive call; the fits are too rough. % is scaled to controls: 0 for no effect and ±100 for the full control effect; potency is read from the fitted curve at half-maximal effect; tags tell the direction and shape of the fitted curve."}
{"assay": "qHTS Assay for Inhibitors of Hepatitis C Virus (HCV)", "details": "Huh7.5.1 HCVcc-Cre (HCVcc is cell-culture hepatitis C virus) infection, luciferase reporter, 44 h; activity change, negative = inhibition: at 41.8 µM (top of the series) unless noted", "method_in_brief": "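A cell-based infection assay in which seeded cells (1,000 per well) receive test compound after 4 h, are inoculated with HCVcc-Cre at approximately 0.5 moi, and are incubated 44 h before luminescence detection.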"}
{"smiles": "COc1cccc(-c2cc(C(=O)NCc3ccco3)c3ccccc3n2)c1", "Potency": "inconclusive [inhibitor, single point]"}
{"smiles": "COc1cc(O)c(C(CCN2CCCC(C)C2)c2ccc(N(C)C)cc2)c(OC)c1", "note": "(stereo not drawn)", "Potency": "inconclusive [inhibitor, partial curve]"}
{"smiles": "Cc1oc2ccc(NS(=O)(=O)c3ccc(C(C)(C)C)cc3)cc2c1C(=O)Nc1ccccc1", "Potency": "inconclusive [inhibitor, partial curve]"}
{"smiles": "CCCCn1c(N)c(N(CCOC)C(=O)c2cc(S(=O)(=O)N3CCOCC3)ccc2F)c(=O)[nH]c1=O", "activity change, negative = inhibition": "inactive: 0.951%"}
{"smiles": "CCCn1c(SCC(=O)N2CC(=O)Nc3ccccc32)n[nH]c1=O", "activity change, negative = inhibition": "inactive: -3.46%"}
{"smiles": "O=C(Cc1ccc(S(=O)(=O)N2CCCC2)s1)N1CCN(c2ccc(F)cc2)CC1", "Potency": "inconclusive [inhibitor, single point]"}
{"smiles": "CC1CN(S(=O)(=O)c2cccc(C(=O)Nc3ccccc3N3CCCC3)c2)CC(C)O1", "note": "(stereo not drawn)", "Potency": "active: 31.6 µM"}
{"smiles": "COC(=O)/C(=C(/F)Sc1cc(C)c(O)c(C)c1)C(F)(F)F", "activity change, negative = inhibition": "inactive: 10.4%"}
{"smiles": "CCOC(=O)C1CCN(C(=O)CSc2nc3ncccc3[nH]2)CC1", "activity change, negative = inhibition": "inactive: 6.69%"}
{"smiles": "CCCCc1sc(-c2c(C#N)c(N)nc3c2CCCCC3)cc1[N+](=O)[O-]", "Potency": "inconclusive [inhibitor, partial curve]"}
{"smiles": "Cc1ccc(CNC(=O)c2oc3ccc(S(=O)(=O)N4CCOCC4)cc3c2C)cc1", "Potency": "inconclusive [inhibitor, partial curve]"}
{"smiles": "Cn1nccc1C(=O)NC1CCCc2c1cnn2-c1ccc(C(C)(C)C)cc1", "note": "(stereo not drawn)", "Potency": "inconclusive [inhibitor, full curve, poor fit]"}
{"smiles": "COc1ccc(S(=O)(=O)N2CCCC2)cc1NC(=O)c1ccccc1", "activity change, negative = inhibition": "inactive: 13.1%"}
{"smiles": "O=C(COc1ccc(S(=O)(=O)NC2CCCCC2)cc1)NCCC1=CCCCC1", "Potency": "inconclusive [inhibitor, single point]"}
{"smiles": "Cc1ccc2nc3c(cc2c1)c(NS(=O)(=O)c1ccccc1)nn3CC(C)C", "activity change, negative = inhibition": "inactive: 13.5%"}
{"smiles": "COc1ccc(N2CCN(c3cnc4ccccc4n3)CC2)cc1", "Potency": "inconclusive [inhibitor, single point]"}
{"smiles": "COc1ccc(OCc2nnnn2-c2ccccc2)cc1", "activity change, negative = inhibition": "inactive: -3.22%"}
{"smiles": "NC(N)=NC(=O)c1nc(Cl)c(N2CCCCCC2)nc1N", "Potency": "inconclusive [inhibitor, single point]"}
{"smiles": "O=C(NCCCn1ccnc1)c1cc2nc(-c3ccc(Br)cc3)cc(C(F)(F)F)n2n1", "Potency": "active: 7.08 µM"}
{"smiles": "CCOC(=O)N1CCN(CCC(=O)Nc2ccccc2)CC1", "Potency": "inconclusive [inhibitor, single point]"}
{"smiles": "COc1cccc(CNC(=O)Cn2c(=O)n(CCC(=O)N3CCCCC3)c(=O)c3sccc32)c1", "Potency": "inconclusive [inhibitor, partial curve]"}
{"smiles": "CC(C)C[C@@H](CSc1ccccc1)N1CCN(CCc2ccccc2)CCC1=O", "Potency": "inconclusive [inhibitor, single point]"}
{"smiles": "CCOC(=O)C1=C(C)NC(=O)CC1c1cc2c(cc1[N+](=O)[O-])OCO2", "note": "(stereo not drawn)", "activity change, negative = inhibition": "inactive: -1.03%"}
{"smiles": "COc1cccc(NC(=O)CN(C)C(=O)c2cccc(S(=O)(=O)N3c4ccccc4CC3C)c2)c1", "note": "(stereo not drawn)", "Potency": "inconclusive [inhibitor, partial curve]"}
{"smiles": "O=C(N/N=C/c1ccc([N+](=O)[O-])s1)C(O)c1ccccc1", "note": "(stereo not drawn)", "Potency": "active: 7.08 µM"}
{"smiles": "COc1ccc(NS(=O)(=O)c2ccc(N/N=C(\\C)c3ccncc3)c([N+](=O)[O-])c2)cc1", "Potency": "active: 4.47 µM"}
{"smiles": "O=[N+]([O-])c1ccc2c(c1)nnn2-c1ccccc1", "activity change, negative = inhibition": "inactive: -5.52%"}
{"smiles": "O=C1CN(/N=C/c2ccc([N+](=O)[O-])o2)C(=O)N1", "Potency": "active: 25.1 µM"}
{"smiles": "CCOc1cc(N2CCOCC2)c(OCC)cc1NC(=O)c1ccc(-n2ccnc2)c([N+](=O)[O-])c1", "Potency": "inconclusive [inhibitor, single point]"}
{"smiles": "Cc1cc2nnc(SCC(=O)Nc3cccc(S(=O)(=O)N4CCOCC4)c3)n2c2ccccc12", "activity change, negative = inhibition": "inactive: -25.4%"}
{"smiles": "O=C(O)C1CC=CCC1C(=O)Nc1ccc(F)c(F)c1", "note": "(stereo not drawn)", "activity change, negative = inhibition": "inactive: 12.7%"}
{"smiles": "CC(=O)c1c(C)[nH]c(C(=O)OCc2ccccc2F)c1C", "Potency": "active: 17.8 µM"}
{"smiles": "Cc1c(C)n(CC(O)CN(CCO)CCO)c2ccccc12", "note": "(stereo not drawn)", "activity change, negative = inhibition": "inactive: 15.1%"}
{"smiles": "Cc1nc(-c2ccc(S(=O)(=O)Oc3ccc(Cl)cc3Cl)s2)cs1", "Potency": "inconclusive [inhibitor, single point]"}
{"smiles": "O=C(CN1C(=O)NC2(CCCCC2)C1=O)Nc1cccc(Cl)c1Cl", "activity change, negative = inhibition": "inactive: -3.49%"}
{"smiles": "CC1CCN(C(=O)Cn2nnc(-c3ccc([N+](=O)[O-])cc3)n2)CC1", "activity change, negative = inhibition": "inactive: -5.17%"}
{"smiles": "Cc1cc(C)cc(-n2c(C)c3c(C)nnc(C)c3c2C)c1", "Potency": "active: 2.24 µM"}
{"smiles": "COc1cc(CNCc2ccncc2)cc(Br)c1OCc1ccccc1F", "Potency": "inconclusive [inhibitor, single point]"}
{"smiles": "O=C1c2ccccc2C(=O)C1c1ccc2ccccc2n1", "activity change, negative = inhibition": "inactive: 9.38%"}
{"smiles": "CC(=O)CSc1ccc(-c2nc3cc(C)c(C)cc3[nH]2)cn1", "Potency": "inconclusive [inhibitor, single point]"}
{"smiles": "C=C(C(=O)c1ccccc1)C(C)C(=C)C(=O)c1ccccc1", "Potency": "active: 14.1 µM"}
{"smiles": "Cc1cccc(N(CC(O)CN2CCOCC2)S(=O)(=O)c2ccccc2)c1", "note": "(stereo not drawn)", "activity change, negative = inhibition": "inactive: -0.0956%"}
{"smiles": "CCCCNc1nc2ccccc2n1CC(=O)Nc1c(C)cccc1CC", "activity change, negative = inhibition": "inactive: -12.2%"}
{"smiles": "COc1ccc(CN2CCN(Cc3ccc4ccccc4c3)CC2)cc1OC", "Potency": "inconclusive [inhibitor, full curve]"}
{"smiles": "CCOc1ccc(CCNC(=O)COn2nnc3ccc(S(=O)(=O)N4CCOCC4)cc32)cc1OCC", "activity change, negative = inhibition": "inconclusive: -85.2% [inhibitor]"}
{"smiles": "O=C(NC1CCCCC1)C(c1ccc2ncccc2c1)N(Cc1ccccc1)C(=O)c1ccc2c(c1)OCCO2", "note": "(stereo not drawn)", "Potency": "inconclusive [inhibitor, single point]"}
{"smiles": "CC(=O)Nc1cc[n+](CC(=O)c2ccc(Cl)cc2)cc1", "Potency": "inconclusive [inhibitor, single point]"}
{"smiles": "Cc1ccc(Nc2nc(N)nc(COC(=O)c3ccc(Br)o3)n2)cc1", "Potency": "inconclusive [inhibitor, single point]"}
{"smiles": "COc1ccc(-c2n[nH]c(C)c2-c2cnn(-c3ccccc3)c2)c(O)c1", "activity change, negative = inhibition": "inactive: -21.8%"}
{"smiles": "O=C(Oc1ccc(N2C(=O)CCC2=O)cc1)c1ccccc1", "Potency": "inconclusive [inhibitor, single point]"}
{"smiles": "COc1ccccc1C1CCN(c2ccc(CO)cc2[N+](=O)[O-])CC1", "Potency": "inconclusive [inhibitor, single point]"}
{"smiles": "CC1=C(C(=O)OCc2ccccc2)C(c2ccc([N+](=O)[O-])cc2)NC(=O)N1", "note": "(stereo not drawn)", "Potency": "inconclusive [inhibitor, single point]"}
{"smiles": "O=[N+]([O-])c1cc(S(=O)(=O)NC2=NCCCCC2)ccc1NCC1CCCCC1", "Potency": "inconclusive [inhibitor, partial curve]"}
{"smiles": "CC(=NNC(=S)N1CCN(c2ccccn2)CC1)c1nccs1", "Potency": "active: 1.26 µM"}
{"smiles": "C=CCn1c(CCC(O)COCCCCC)n[nH]c1=S", "note": "(stereo not drawn)", "activity change, negative = inhibition": "inactive: 2.02%"}
{"smiles": "Cc1ccc(N/C(C(Cl)=C(Cl)Cl)=C(/Cl)[N+](=O)[O-])c(C)c1", "Potency": "inconclusive [inhibitor, single point]"}
{"smiles": "COc1cccc(-c2noc(CCC(=O)N3CCN(c4cc(C)ccc4C)CC3)n2)c1", "Potency": "inconclusive [inhibitor, full curve]"}
{"smiles": "CCc1ccc(N2C(=O)CN(Cc3cccs3)C2=S)cc1", "activity change, negative = inhibition": "inactive: -5.24%"}
{"smiles": "CN(C)C(=O)Oc1ccc2c(c1)O/C(=C\\c1cccc([N+](=O)[O-])c1)C2=O", "activity change, negative = inhibition": "inactive: 8.02%"}
{"smiles": "CCCCn1c(N)c(N(CC(C)C)C(=O)c2cc(-c3ccc(OC)cc3)nc3ccccc23)c(=O)[nH]c1=O", "activity change, negative = inhibition": "inactive: 1.07%"}
{"smiles": "CCc1cc2c(=O)c(-c3cnn(-c4ccccc4)c3)c(C)oc2cc1OCC(=O)Nc1cccc(C)c1", "Potency": "inconclusive [inhibitor, partial curve]"}
{"smiles": "Cc1sc2nc(CSc3ccccc3)nc(N3CCN(C)CC3)c2c1C", "Potency": "inconclusive [inhibitor, single point]"}
{"smiles": "COc1cc(OC)c(C(=O)OCC(=O)N2CCOCC2)cc1OC", "activity change, negative = inhibition": "inactive: 1.93%"}
{"smiles": "COCCN(C(=O)C1CC(=O)N(Cc2ccccc2)C1)c1nc(-c2ccc([N+](=O)[O-])cc2)cs1", "note": "(stereo not drawn)", "Potency": "inconclusive [inhibitor, partial curve]"}
{"smiles": "COC(=O)C1CCN(C(=O)C2CCCCC2)CC1", "Potency": "active: 5.01 µM"}
{"smiles": "CN1CCN(NC(=O)c2cc(-c3cccc(Cl)c3)nc3ccccc23)CC1", "Potency": "inconclusive [inhibitor, single point]"}
{"smiles": "CCc1ccc(OCC(=O)NNC(=O)CSc2nnc(-c3ccc(C)cc3)n2C)cc1", "Potency": "inconclusive [inhibitor, single point]"}
{"smiles": "C[C@]12CCC3[C@@H](CC[C@@H]4C[C@H](O)CC[C@]34C)[C@@H]1CCC2=O", "note": "(stereo partly drawn)", "activity change, negative = inhibition": "inactive: 15.9%"}
{"smiles": "COc1cc(Cl)cc(C=O)c1OCC(=O)O", "Potency": "inconclusive [inhibitor, single point]"}
{"smiles": "COC(=O)c1ccccc1NC(=O)c1ccc(F)cc1", "Potency": "inconclusive [inhibitor, single point]"}
{"smiles": "CC(C)(C)c1csc(NC(=O)Cn2c(=O)oc3ccccc32)n1", "Potency": "inconclusive [inhibitor, single point]"}
{"smiles": "CC(C)CNC(=O)c1ccccc1NC(=O)c1ccc(CSc2ccccc2)cc1", "Potency": "inconclusive [inhibitor, full curve]"}
{"smiles": "CCC(NC(=O)c1ccncc1)c1ccccc1", "note": "(stereo not drawn)", "activity change, negative = inhibition": "inactive: 0.339%"}
